# The campaign covered roughly 45,000 compounds. About 65 (0.1%) were called active. Calls follow the shape of the dose curve; as a rule, active = well fitted activation curve with a large enough effect; inconclusive = small, poorly fitted or top-dose-only effect; inactive = no such curve, though single readings can be large or run the other way. The list shows a part of the results.
# Target: Galactocerebrosidase (Homo sapiens) (UniProt P54803)
# Test: A Novel Cell-Based Assay to Identify Small Molecules for B -Galactocerebrosidase; also: 0% is about no effect; nearly all actives have a fitted effect of over 65% in size
# Conditions: 145M-Twi-hGALC-G270D cells (Twitcher mouse brain line with human GALC G270D), HMU-beta-Gal fluorescence, 48 h; activation: at the top concentration
# Summary of the method: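 Brain-derived Twitcher mouse 145M-Twi cells stably expressing human GALC-G270D or wild-type GALC, treated live, then residual GALC activity read by fluorescence of HMU-b-Gal substrate (0.1 mM final) in citrate-phosphate buffer pH 5.2 with sodium taurocholate. Signal increase indicates enhancement.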
row,Structure (SMILES),activation
1,Cc1nnc(NC(=O)c2cccn(Cc3cccc(Cl)c3)c2=O)s1,inactive: -3.46%
2,N[C@@H](Cc1ccc(N(CCCl)CCCl)cc1)C(=O)O,inactive: -15.7%
3,CC(C)=CCOc1c2occc2cc2ccc(=O)oc12,inactive: -11.6%
4,C=CCN1C[C@H](C)N([C@H](c2ccc(C(=O)N(CC)CC)cc2)c2cccc(OC)c2)C[C@H]1C,inactive: -10.5%
5,CC(=O)[C@@]1(O)CC[C@H]2[C@@H]3C[C@H](C)C4=CC(=O)CC[C@]4(C)[C@H]3CC[C@@]21C,inactive: -16.3%
6,C[C@]12CC[C@H]3[C@@H](CCC4=CC(=O)CC[C@@H]43)[C@@H]1CC[C@@H]2O,inactive: -7.57%
7,COc1cc2[nH]c(=O)n(Cc3ccc(C(=O)N4CCN(c5ccc(Cl)cc5)CC4)cc3)c(=O)c2cc1OC,inactive: -37.7%
8,C[C@]12C=CC(=O)C=C1CC[C@@H]1[C@@H]2CC[C@@]2(C)[C@H]1CC[C@]2(C)O,inactive: -14.2%
9,CCCC12CN3CC(CCC)(CN(C1)C3c1ccccn1)C2=O (centres undefined),inactive: -8.76%
10,COc1cccc(/C=C/c2nc3ccccc3c(=O)n2-c2ccc(Cl)cc2)c1OC,inactive: -9.57%
11,Cc1ccc(-n2c(/C=C/c3cccs3)nc3ccccc3c2=O)cc1C,inactive: -4.77%
12,COCCOCCO,inactive: -14.8% [at 114 µM]
13,COc1ccc(C)cc1NC(=O)c1cccn(Cc2cccc([N+](=O)[O-])c2)c1=O,inactive: -8.02%
14,CC(C)(N)Cc1ccc(Cl)cc1,inactive: -6.4%
15,COc1ccc(CN2CCNCC2)c(OC)c1OC,inactive: -5.11%
16,CSc1ccc(CN2CCN(C(=O)COc3ccc(C)cc3)CC2)cc1,inactive: -10.6%
17,COc1ccc(CCC(C)=O)cc1,inactive: -13.9%
18,CCOc1ccc2nc(NC(=O)c3cccn(Cc4ccccc4)c3=O)sc2c1,inactive: -2.6%
19,C=C(C)[C@H]1CN[C@H](C(=O)O)[C@H]1CC(=O)O,inactive: -10.5%
20,COc1ccc(OC)c(NC(=O)Cn2cc(C(=O)c3ccccc3)c3ccccc32)c1,inactive: -9.49%
21,O=C(Nc1ccc(Cl)cc1C(=O)c1ccccc1)c1cc(Cl)cc(Cl)c1,inactive: -1.31%
22,O=C1OC(CCN2CCCCC2)OC1(c1ccccc1)c1ccccc1 (centres undefined),inactive: -7.81%

row,Structure (SMILES),activation
1,Cc1cc(O)ccc1Cl,inactive: -15.5%
2,CCOc1ccc2nc(NC(=O)c3cccn(Cc4ccc(Cl)cc4)c3=O)sc2c1,inactive: 5.98%
3,COc1ccc(-c2nc(CN3C(=O)CN=C(c4ccccc4)c4cc(Cl)ccc43)c(C)o2)cc1,inactive: 18%
4,Nc1ccccc1C(=O)O,inactive: -11%
5,O=C(Nc1ccc2c(c1)OCCO2)c1cccn(Cc2cccc(F)c2)c1=O,inactive: -18.2%
6,CCCC(C)C1(CC)C(=O)N=C(S)NC1=O (centres undefined),inactive: -15.7%
7,CCc1ccccc1NC(=O)c1cccn(Cc2ccccc2F)c1=O,inactive: -6.33%
8,COc1ccc(NC(C)=O)cc1NC(=O)c1cccn(Cc2ccccc2)c1=O,inactive: -9.31%
9,C[N+]1(CCC(C(N)=O)(c2ccccc2)c2ccccc2)CCCCC1,inactive: -10.7%
10,Cc1nnc(NC(=O)c2cccn(Cc3cccc([N+](=O)[O-])c3)c2=O)s1,inactive: -8.43%
11,CC[C@H]1C[C@H]2[C@@H]3CCC4=CC(=O)CC[C@@H]4[C@H]3CC[C@]2(C)[C@H]1O,inactive: -9.23%
12,N#Cc1cccc(NC(=O)CSc2nc3c(cc2C#N)N2CCC3CC2)c1,inactive: -2.27%
13,CC(Cc1ccc2c(c1)OCO2)NO (centres undefined),inactive: -3.73% [at 129 µM]
14,Cc1ccccc1-n1c(/C=C/c2ccc(O)cc2)nc2ccccc2c1=O,inactive: -11.6%
15,CC(C)(C)c1ccc(OCC(=O)Nc2ccc(Cl)cc2C(=O)c2ccccc2)cc1,inactive: 1.13%
16,CSc1ncc(C(=O)Nc2ccc(Cl)cc2C(=O)c2ccccc2)c(C)n1,inactive: 2.88%
17,CCOc1ccccc1CN(CCc1ccc2c(c1)OCO2)Cc1ccc(CC)cc1,inactive: -11.8%
18,COC(C)(C)CCCC(C)C/C=C/C(C)=C/C(=O)OC(C)C (centres undefined),inactive: -14.4%
19,CC(C)(C)NC[C@H](O)c1ccc(O)cc1Cl,inactive: -11.6%
20,CCN(CC)C(=O)c1ccc(NC(=O)Cn2nc(-c3ccc(C)cc3)c3ccccc3c2=O)cc1,inactive: -16.1%
21,Cc1ccc(Cn2cccc(C(=O)Nc3nnc(C)s3)c2=O)cc1,inactive: -7.84%
22,Cc1ccc(Cl)c2sc(NC(=O)c3ccc(S(=O)(=O)N4CCCC4)cc3)nc12,inactive: -30.7%

row,Structure (SMILES),activation
1,COc1cc(OC)cc(C(=O)Nc2nc(-c3nnn(-c4ccc(C)cc4)c3C)ns2)c1,inactive: -36.4%
2,CCOC(=O)c1ccc(NC(=O)c2cccn(Cc3ccc(C)cc3)c2=O)cc1,inactive: -10.9%
3,CC(C)CC(N(C)C)C1(c2ccc(Cl)cc2)CCC1 (centres undefined),inactive: -15.5%
4,Cc1ccc(N=CN(C)C=Nc2ccc(C)cc2C)c(C)c1,inactive: -9.16%
5,O=[N+]([O-])c1c(Cl)c(Cl)cc(Cl)c1Cl,inactive: -13.6% [at 114 µM]
6,CC(C)[N+](C)(CCC(C(N)=O)(c1ccccc1)c1ccccc1)C(C)C,inactive: -27.2%
7,C#C[C@]1(O)CC[C@H]2[C@@H]3CCC4=CC(=O)CC[C@]4(C)[C@H]3CC[C@@]21C,inactive: -3.9%
8,O=C(O)COc1nc(Cl)c(Cl)cc1Cl,inactive: -7.75% [at 114 µM]
9,Cc1ccc(NC(=O)N(Cc2ccc3c(c2)OCO3)C2CCN(Cc3ccccc3)CC2)cc1Cl,inactive: -28.6%
10,COP(=S)(OC)Oc1ccc(SC)c(C)c1,inactive: -9.06%
11,O=c1[nH]c2ccccc2n1CCCN1CCC(n2c(=O)[nH]c3cc(Cl)ccc32)CC1,inactive: -13.8%
12,C[C@H]1[C@@H]2Cc3ccc(O)cc3[C@@]1(C)CCN2C,inactive: -2.67% [at 288 µM]
13,CCO[C@H]1O[C@@H]2OC3(C)CC[C@H]4[C@H](C)CC[C@@H]([C@H]1C)[C@@]24OO3,inactive: -6.76%
14,CCN[C@@H](C)Cc1ccccc1,inactive: -4.18% [at 129 µM]
15,N#Cc1cc2c(nc1SCC(=O)Nc1ccc(F)c(Cl)c1)C1CCN2CC1,inactive: -8.68%
16,COc1cc(CC(C)N)cc2c1OCO2 (centres undefined),inactive: -4.15% [at 129 µM]
17,O=C(Nc1ccc(Br)cc1C(=O)c1ccccc1Cl)c1ccccc1F,inactive: -13.4%
18,COc1ccc(CCNCc2ccc3c(c2)n(C)c(=O)n3C)cc1,inactive: -10.2%
19,O=C1CC(c2ccc(F)cc2)c2c(c3ccccc3oc2=O)O1 (centres undefined),inactive: -10.7%
20,CC(Cc1ccc(O)cc1)NCC(O)c1cc(O)cc(O)c1 (centres undefined),inactive: -5.43%
21,CCOc1ccc(NC(=O)c2cccn(Cc3cccc(Cl)c3)c2=O)cc1,inactive: -26.1%
22,COc1ccc(NC(=O)CCc2nc(C3=CCN(Cc4cccc(Cl)c4)CC3)no2)cc1OC,inactive: -29.9%

row,Structure (SMILES),activation
1,CS(=O)(=O)c1ccc(C(=O)C2C(=O)CCCC2=O)c([N+](=O)[O-])c1,inactive: -4.5% [at 114 µM]
2,N#Cc1cccc(NC(=O)c2sc3nc4c(cc3c2N)N2CCC4CC2)c1,inactive: 1.03%
3,Cc1oc(-c2ccccc2Cl)nc1CN1C(=O)CN=C(c2ccccc2)c2cc(Cl)ccc21,inactive: 6.42%
4,C=CC[C@]1(O)CC[C@H]2[C@@H]3CCC4=CC(=O)CCC4=C3C=C[C@@]21C,inactive: -20.7%
5,Cc1ccc(-n2nc(C)c3c2NC(=O)CSC3c2ccc(O)cc2)cc1Cl (centres undefined),inactive: 13.3%
6,O=c1c2ccccc2nc(/C=C/c2ccccc2O)n1-c1ccc(Br)cc1,inactive: -7.42%
7,CCCC12CN3CC(C)(CN(C1)C3c1ccccn1)C2=O (centres undefined),inactive: -4.75%
8,CCOc1ccc2nc(NC(=O)c3cccn(Cc4ccc(C)cc4)c3=O)sc2c1,inactive: -8.99%
9,O=C1CN=C(c2ccccc2)c2cc([N+](=O)[O-])ccc2N1,inactive: -7.25%
10,Cc1ccc(S(=O)(=O)N[C@@H](CCCCN)C(=O)CCl)cc1,inactive: -17.2%
11,O=C(Nc1ccc(F)c(Cl)c1)N(Cc1ccc2c(c1)OCO2)C1CCN(Cc2ccccc2)CC1,inactive: -12.1%
12,CN1C(=O)COc2c(C(=O)NC3CN4CCC3CC4)cc(Cl)cc21 (centres undefined),inactive: -17.3%
13,Nc1c(C(=O)Nc2ccc(F)c(Cl)c2)sc2nc3c(cc12)N1CCC3CC1,inactive: -0.916%
14,O=C(Nc1ccc2c(c1)OCO2)c1cccn(Cc2ccccc2)c1=O,inactive: -18%
15,CCOC(=O)C1(c2ccccc2)CCN(CCc2ccc(N)cc2)CC1,inactive: -17.1%
16,O=C(Nc1ccon1)c1cccn(Cc2cccc([N+](=O)[O-])c2)c1=O,inactive: -4.98%
17,Nc1ccc(N)cc1,inactive: -16.3%
18,O=C(Nc1ccccc1)N(Cc1ccc2c(c1)OCO2)C1CCN(Cc2ccccc2)CC1,inactive: -9.7%
19,Cc1cccc(C)c1NC1=NCCCS1,inactive: -11%
20,CCc1ccc(C2CCNCC2)cc1,inactive: -18.8%
21,CCO/N=C(\CC)C1=C(O)CC(c2c(C)cc(C)cc2C)CC1=O (centres undefined),inactive: -19.7% [at 114 µM]
22,CC(CC(C#N)(c1ccccc1)C(C)C)N(C)C (centres undefined),inactive: -7.75%

row,Structure (SMILES),activation
1,COC(=O)c1ccccc1NC(=O)c1cccn(Cc2cccc(Cl)c2)c1=O,inactive: -24.3%
2,CCCSP(=O)(OCC)SCCC,inactive: -6.13% [at 114 µM]
3,Clc1ccc(C(OCCN2CCCCC2)c2ccccc2)cc1 (centres undefined),inactive: -14.4%
4,Cc1ccc(-c2nc(CN3C(=O)CN=C(c4ccccc4Cl)c4cc(Cl)ccc43)c(C)o2)cc1,inactive: -17.4%
5,C[N+]1(C)[C@@H]2CC[C@H]1CC(OC(=O)C(CO)c1ccccc1)C2 (some centres undefined),inactive: -10.2%
6,CC[N+]1(CCOC(=O)C(O)(c2ccccc2)c2ccccc2)CCCCC1,inactive: -19.7%
7,O=C(Nc1ccc2c(c1)OCCO2)c1cccn(Cc2ccccc2)c1=O,inactive: -13.8%
8,Cc1c(Cl)c(=O)oc2cc(OP(=O)(OCCCl)OCCCl)ccc12,inactive: -15.3%
9,Cc1cccc(Cn2cccc(C(=O)Nc3nnc(C)s3)c2=O)c1,inactive: -24.5%
10,CC(C)C[C@@H]1[C@H](c2ccccc2)OC(=O)N1CCCN1CCCCCC1,inactive: -14%
11,O=C1CC(c2ccc(C(F)(F)F)cc2)c2c(c3ccccc3oc2=O)O1 (centres undefined),inactive: -8.34%
12,Nc1ccccc1,inactive: -13.8%
13,O=C(O)COc1ccccc1,inactive: -12.2%
14,C=CCc1ccccc1OCCn1c(C2CC(=O)N(Cc3ccc(F)cc3)C2)nc2ccccc21 (centres undefined),inactive: -36.3%
15,Cc1ccc(NC(=O)CN2C(=O)CN=C(c3ccccc3)c3ccccc32)cc1Cl,inactive: -28%
16,N#Cc1cc2c(nc1SCC(=O)Nc1cccc(C(F)(F)F)c1)C1CCN2CC1,inactive: 9.65%
17,COc1ccc(C(c2c(O)c3ccccc3oc2=O)c2c(C)n(C)n(-c3ccccc3)c2=O)cc1 (centres undefined),inactive: -5.3%
18,CCSc1nnc(NC(=O)c2cccn(Cc3ccccc3Cl)c2=O)s1,inactive: 8.64%
19,CCOc1ccccc1NC(=O)c1cccn(Cc2ccccc2C)c1=O,inactive: 5.88%
20,CCC(=O)C(CCN(C)C)(c1ccccc1)c1ccccc1,inactive: -7.94%
21,CC(=O)c1cccc(NC(=O)c2cccn(Cc3cccc(C)c3)c2=O)c1,inactive: -21.2%
